The source of these data is the supplement of paper PMC11417369.

Some of the results follow.

The subject of this experiment is PF3D7_0420300 AP2 domain 1 (GST-tagged). The experiment can be described thus: gcPBM binding intensity (ln(normalized median fluorescence intensity)); higher = stronger DNA binding. The gist of the method:
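GST-tagged P. falciparum DNA-binding domains, expressed in E. coli (about 25 μg on average), were applied for 1 h to an Agilent 4 × 180k array of primer-extended double-stranded 36-bp intergenic genomic probes plus negative controls. The binding buffer was 1× PBS with 1% milk, 0.2 mg/ml BSA, 0.5% salmon testes DNA and 0.03% Triton X-100. Bound protein was detected with Alexa488 anti-GST antibody and scanned at 488 nm. Binding intensity is the highest Masliner-normalised natural-log median intensity across replicate spots of either probe orientation.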
Consider “ATAAACATATCAATATGTACATATTTTTGTTTGTAT [XGTACX_site7018]”, for which the “gcPBM binding intensity (ln)” value is 9.34.
Turning to “ATTTATCAATAAAATGCACACACTGTAATATTATTA [CACACA_site3976]”, the “gcPBM binding intensity (ln)” value came to 9.55.
In the case of “AAACCACAAAATTTTTTATATATGACCAATACATAG [CACACA_negctrl_site277]”, the “gcPBM binding intensity (ln)” value is 9.28.
Next, “TTATAATAGTTAAATGTACACACTAACTACATGGAA [CACACA_site9070]”: 9.27; “ATATATATACATACATACCTATGTATATGTGTAATT [GTGCAC_negctrl_site50]”: 9.24; “ATGGTAGTGATTAAAAGTACACGTAATTGTAAAAAT [XGTACX_site387]”: 9.45.
In the case of “TAAACAACTTATAAATGTACACATATTTTAATTACC [XGTACX_site5409]”, the “gcPBM binding intensity (ln)” value stood at 9.35.
Consider “TAAGTGCATGAGATATGTACATATATAAAATATATA [XGTACX_site3294]”, for which the “gcPBM binding intensity (ln)” value was determined as 9.18.
Regarding “AATAAAAACTAAACATGTACGCACATATATATATAT [XGTACX_site8096]”, the “gcPBM binding intensity (ln)” value came out at 9.43.
As for “TAAAAAAAAAAAAATACACACACACCGATATATATA [CACACA_site8498]”, the figure is 10.2; as for “TCATAGTCTTAATGACTACACACCTAACTATGCATG [CACACA_site1839]”, 9.3.
For “GTATATATTCATATGGAAAATAAAGGAGAAAACAAG [TGCATGCA_negctrl_site220]”, the “gcPBM binding intensity (ln)” value is 9.55.
Next, “ATGTATGTATAATATACACACTCACAAGCATTCAAA [CACACA_site4306]”: 9.43.
Regarding “TTTGTTTTTTCTTTTTGTACATATACAAGATACGTA [XGTACX_site2309]”, the “gcPBM binding intensity (ln)” value was found to be 9.12.
As for “TTTTGTAATTCTCTTCATATAATTTATATATATATA [CACACA_negctrl_site1825]”, the “gcPBM binding intensity (ln)” value is 9.19.
“GTGTTTTTTTTAGATTGTACATATATATATATATAT [XGTACX_site4562]”: the “gcPBM binding intensity (ln)” value is 9.63.
Regarding “ACCCAACATATGTGTACACAGAAAATAAATATAATA [CACACA_site5901]”, the “gcPBM binding intensity (ln)” value came out at 9.4.
Take “AGATATTTTATAATTACACACATGAGGTTATTTGAA [CACACA_site1999]”: the “gcPBM binding intensity (ln)” value came out at 9.51.
With “TTATAAAAATAATATCGTACAAATGACATAGATGAA [XGTACX_site2570]”, the “gcPBM binding intensity (ln)” value worked out at 9.37.
Consider “CATATACATAAACACACACACACATAAATAAATATA [CACACA_site4864]”, for which the “gcPBM binding intensity (ln)” value is 10.2.
Turning to “TATTATTTTTTAAATTGTACAATAAATTATAAAAGG [XGTACX_site1162]”, the “gcPBM binding intensity (ln)” value came out at 8.97.
Turning to GAAAAGCAGATAAATGTGCACATATATGTTTGTATA, the “gcPBM binding intensity (ln)” value is 9.31.
As for “TATAGGTATATATAAGTGCAATATATATGTATATAC [GTGCAC_site9427]”, the “gcPBM binding intensity (ln)” value is 9.5.
Take “ACATAAAATTGTTAAAAAATTGTATAAATAATACAT [XGTACX_negctrl_site557]”: the “gcPBM binding intensity (ln)” value is 9.14.
Next, “CAGCTCTTAAAAATTACACACATATACTCATATATA [CACACA_site5757]”: 9.46.
Next, “TTTTTTTCTTTATTAGCACACATAATATTATATATG [CACACA_site8841]”: 9.42; “TATATCATTATATAAACACACAATATGTTTTTTATA [CACACA_site3781]”: 9.13.
Next, “TATTAATCTAATTCATAAAAAATGATCTATTTTGTT [CACACA_negctrl_site1035]”: 8.86; “AAAATGAACAGACACACACACATATTTATATTTATA [CACACA_site7182]”: 9.9.
Take “ACCTAAAAGGTATAATATATAAATAAAAAAAAAAAT [CACACA_negctrl_site134]”: the “gcPBM binding intensity (ln)” value was 9.3.
Next, “AACATTTGATAAGATACACACACAAGGAAAAAAATA [CACACA_site8004]”: 10; “TAGAATAATCTATAAACACACAAACACAACAAAAGA [CACACA_site7861]”: 10.
In the case of “ACATAAATTTAATACACACACAAAGAAAAAAAAAAA [CACACA_site4088]”, the “gcPBM binding intensity (ln)” value is 10.1.
As for “TAATATAATATATATACACACAAGAAATACAAAACG [CACACA_site1378]”, the figure is 10.1.
As for “ATATTATTATAATATACATATATATATATAATATAT [CACACA_negctrl_site480]”, the figure is 9.01; as for “TATATATATAATTAAAGTACATATAACCACAAAAAT [XGTACX_site7289]”, 9.61.
“GGTCTTTTCAACACACGTACATAAAAATATTATACA [XGTACX_site5360]”: the “gcPBM binding intensity (ln)” value amounted to 9.47.
As for “TATATATTGATATGCACACCTATGTATTGATGTATA [CACACA_site1073]”, the figure is 9.42.
As for TAAACATATAGAGGGGTGCAAAGAATTGTAAAATTT, the figure is 9.52; as for “AATAATAATAAATATACACACATCATACAATTAACA [CACACA_site3679]”, 9.85; as for “TATTTTTTTCTTACTACACACATATAGATGCTTTCC [CACACA_site7825]”, 9.57.
With “AAAAAAAATAAAAATAAAAATAAAAATAAAAATAAA [GTGCAC_negctrl_site437]”, the “gcPBM binding intensity (ln)” value turned out to be 8.9.
Take “TATCATTTTGTATATAGTACATATATAAAATCGTTA [XGTACX_site3875]”: the “gcPBM binding intensity (ln)” value was 8.98.
“ATAAAAATAACATATAAACACACATATATATATATA [CACACA_site9267]”: the “gcPBM binding intensity (ln)” value worked out at 9.35.
